Here are results for 58 compounds from article PMC4336329 (PLoS ONE, 2015).

Structures are written as SMILES. In all, about 310,000 compounds went through this assay and about 14,000 (4.5%) showed an effect of 50% or more. Effects have a minus sign here. The list shows a part of the results.
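Note: peak tail current of the secondary pulse compared with the same well before compound.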

The target of this assay is human ether-à-go-go-related gene (hERG) potassium channel (human, UniProt Q12809). Kind of assay: primary screen, population patch clamp on CHO cells stably expressing hERG.
Chain of human ether-à-go-go-related gene (hERG) potassium channel (Q12809 whole entry, looked up): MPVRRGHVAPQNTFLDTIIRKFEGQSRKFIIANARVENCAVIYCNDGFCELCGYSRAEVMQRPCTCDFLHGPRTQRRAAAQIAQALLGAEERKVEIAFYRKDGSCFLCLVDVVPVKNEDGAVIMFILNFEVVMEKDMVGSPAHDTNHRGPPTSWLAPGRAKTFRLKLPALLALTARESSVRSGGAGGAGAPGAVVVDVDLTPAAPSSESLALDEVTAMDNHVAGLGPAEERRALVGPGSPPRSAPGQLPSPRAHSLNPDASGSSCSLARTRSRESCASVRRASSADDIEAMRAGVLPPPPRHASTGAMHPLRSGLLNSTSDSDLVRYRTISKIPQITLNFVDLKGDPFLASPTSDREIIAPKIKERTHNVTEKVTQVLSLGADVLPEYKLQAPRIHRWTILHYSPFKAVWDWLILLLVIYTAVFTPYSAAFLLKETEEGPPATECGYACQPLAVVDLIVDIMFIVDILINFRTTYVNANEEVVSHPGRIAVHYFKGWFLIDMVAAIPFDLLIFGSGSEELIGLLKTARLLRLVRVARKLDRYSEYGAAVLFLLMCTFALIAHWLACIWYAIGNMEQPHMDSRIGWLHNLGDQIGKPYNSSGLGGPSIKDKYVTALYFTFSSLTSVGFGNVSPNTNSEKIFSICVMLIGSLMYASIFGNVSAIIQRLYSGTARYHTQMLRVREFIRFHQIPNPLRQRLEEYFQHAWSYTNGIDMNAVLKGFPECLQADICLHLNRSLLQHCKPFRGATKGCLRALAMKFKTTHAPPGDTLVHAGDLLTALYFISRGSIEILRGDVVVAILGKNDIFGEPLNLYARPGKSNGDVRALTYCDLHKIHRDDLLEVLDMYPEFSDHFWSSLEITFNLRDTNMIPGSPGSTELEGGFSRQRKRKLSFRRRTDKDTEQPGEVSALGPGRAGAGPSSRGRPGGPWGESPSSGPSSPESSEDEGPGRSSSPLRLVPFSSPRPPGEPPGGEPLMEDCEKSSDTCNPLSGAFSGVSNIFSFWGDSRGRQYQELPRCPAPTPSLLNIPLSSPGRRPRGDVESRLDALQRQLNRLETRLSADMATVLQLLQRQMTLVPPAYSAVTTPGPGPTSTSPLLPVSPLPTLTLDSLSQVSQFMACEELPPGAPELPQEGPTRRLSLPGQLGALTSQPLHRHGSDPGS
Regarding `O=C(CCC1COc2ccccc2O1)Nc1ccc(Cl)cn1` (stereo not shown), the “hERG current change (%, negative = inhibition) at 10uM” value is -15%.

Consider `O=C(CC1SC(=NCC2CCCO2)NC1=O)Nc1cc([N+](=O)[O-])ccc1Cl` (stereo not shown), for which the “hERG current change (%, negative = inhibition) at 10uM” value was 0.256%.

Consider `O=C(c1ccc(S(=O)(=O)NCC2CCCO2)cc1)N1CCN(c2ccccc2)CC1` (stereo not shown), for which the “hERG current change (%, negative = inhibition) at 10uM” value was -11.3%.

For the compound `COCCN1Cc2cccc(C(=O)Nc3cc(C)cc(C)c3)c2C1=O`, the “hERG current change (%, negative = inhibition) at 10uM” value was -7.56%.

For `Fc1ccc(CSc2ncnc3nc[nH]c23)cc1`, the “hERG current change (%, negative = inhibition) at 10uM” value was 10.1%.

`COc1ccc(C(=O)c2c(C)c3ccccc3n2CC(O)CNC(C)C)cc1.Cl` (stereo not shown): the “hERG current change (%, negative = inhibition) at 10uM” value was -43.4%.

On to `O=C(N/C(=C/c1cccnc1)C(=O)N1CCCCCC1)c1ccccc1`, for which the “hERG current change (%, negative = inhibition) at 10uM” value was 12.3%.

Turning to `COc1ccc(OC)c(C2CC(c3c(-c4ccccc4)c4cc(Cl)ccc4[nH]c3=O)=NN2S(C)(=O)=O)c1` (stereo not shown), the “hERG current change (%, negative = inhibition) at 10uM” value was found to be 12.5%.

For `CC(C)=CCCC(C)CN1CCC(N2CCC(C(=O)N3CCCC3)CC2)CC1` (stereo not shown), the “hERG current change (%, negative = inhibition) at 10uM” value was -74.8%.

As to `Cc1noc(C)c1S(=O)(=O)Nc1ccc(O)c2c(=O)cc(-c3ccccc3Cl)oc12`, the “hERG current change (%, negative = inhibition) at 10uM” value was -13.2%.

With `COc1cccc2c(=O)c3ccoc3n(C)c12`, the “hERG current change (%, negative = inhibition) at 10uM” value is recorded as -0.434%.

As to `Cn1c(=O)c2c(nc(SCCCC#N)n2Cc2c(F)cccc2Cl)n(C)c1=O`, the “hERG current change (%, negative = inhibition) at 10uM” value was -48.2%.

On to `COc1cc(/C=N/NC(=O)C(C)Nc2n[nH]c(=O)[nH]c2=O)ccc1O` (stereo not shown), for which the “hERG current change (%, negative = inhibition) at 10uM” value was found to be 3.56%.

Regarding `CC(=O)NCN1CCN(CNC(C)=O)CC1`, the “hERG current change (%, negative = inhibition) at 10uM” value is listed as 10.4%.

In the case of `Cc1ccc(-c2ccnc3[nH]n(-c4ccccc4)c(=O)c23)cc1`, the “hERG current change (%, negative = inhibition) at 10uM” value is on record as 16.9%.

Take `CCOC(=O)c1cc2sccc2n1CC(=O)Nc1ccc(OC)cc1`: the “hERG current change (%, negative = inhibition) at 10uM” value was -7.6%.

As to `CCc1cccc2c(C(=S)N3CCOCC3)c[nH]c12`, the “hERG current change (%, negative = inhibition) at 10uM” value is -8.73%.

On to `CCNc1nc(NCC)n2c(SCC(=O)Nc3cccc(F)c3)nnc2n1`, for which the “hERG current change (%, negative = inhibition) at 10uM” value is -1.95%.

With `CCOc1ccc(NC(=O)CN2CCC(n3cnc4cc(F)ccc43)CC2)cc1`, the “hERG current change (%, negative = inhibition) at 10uM” value is given as -74.3%.

Take `Nc1nc(N2C(=O)C3CC=CCC3C2=O)nn1-c1ccccc1` (stereo not shown): the “hERG current change (%, negative = inhibition) at 10uM” value is 15.8%.

As to `CCOC(=O)N1CCN(Cc2nc3cc([N+](=O)[O-])ccc3n2CC)CC1`, the “hERG current change (%, negative = inhibition) at 10uM” value is reported as -51.9%.

Regarding `COC(=O)/C(=C\c1c[nH]c2ccccc12)NC(C)=O`, the “hERG current change (%, negative = inhibition) at 10uM” value was found to be 4.95%.

In the case of `CC(C)c1nc(SCC(=O)Nc2ccc(N(C)C)cc2)c2ccccc2n1`, the “hERG current change (%, negative = inhibition) at 10uM” value is on record as 20.3%.

Regarding `COc1ccc2nc(NC(=O)C3CCCN3S(=O)(=O)c3ccc(C)cc3)sc2c1` (stereo not shown), the “hERG current change (%, negative = inhibition) at 10uM” value is on record as 6.17%.

With `COC(=O)CSc1nc2cc(Cl)ccc2c(=O)n1C1CCCC1`, the “hERG current change (%, negative = inhibition) at 10uM” value is 24.3%.

For `O=C(NC(=S)Nc1ccc(Cl)c(C(=O)O)c1)c1cccc(COc2ccccc2)c1`, the “hERG current change (%, negative = inhibition) at 10uM” value worked out at 6.56%.

For the compound `COCCOC(=O)c1sc(=S)n(CCOC)c1N`, the “hERG current change (%, negative = inhibition) at 10uM” value amounted to 1.82%.

For `O=C(CSc1cccc[n+]1[O-])NC1CCCCCCC1`, the “hERG current change (%, negative = inhibition) at 10uM” value came out at 16.2%.

On to `CCOC(=O)c1oc2ccccc2c1NC(=O)c1cccc(OC)c1OC`, for which the “hERG current change (%, negative = inhibition) at 10uM” value was -18.8%.

As to `CC(C)Oc1ccc(S(=O)(=O)N2CCCCC2)cc1NC(=O)C1=COCCO1`, the “hERG current change (%, negative = inhibition) at 10uM” value is listed as -3.99%.

Turning to `O=C(N/N=C/c1cc(Br)c(Br)s1)c1ccncc1`, the “hERG current change (%, negative = inhibition) at 10uM” value is recorded as 8.49%.

For the compound `COCC1CCN(Cc2cn[nH]c2-c2cc3ccccc3o2)C1` (stereo not shown), the “hERG current change (%, negative = inhibition) at 10uM” value was -33.7%.

Regarding `Cc1onc(-c2ccccc2)c1C(=O)Nc1ccc2c(c1)OCCO2`, the “hERG current change (%, negative = inhibition) at 10uM” value turned out to be 6.94%.

As for `NC(=O)CN1C(=O)C(=O)N(Cc2cccc(Cl)c2)C1=O`, the “hERG current change (%, negative = inhibition) at 10uM” value was found to be 7.06%.

As to `Cc1ccccc1C1NC(=S)NC2=C1C(=O)CC(C)(C)C2` (stereo not shown), the “hERG current change (%, negative = inhibition) at 10uM” value turned out to be 18.5%.

For the compound `Cc1ccc(S(=O)(=O)N2c3ccc(S(N)(=O)=O)cc3CC2C)cc1` (stereo not shown), the “hERG current change (%, negative = inhibition) at 10uM” value is listed as -4.92%.

In the case of `COc1cc2c(cc1OC)C(C)N(C(=O)c1sccc1C)CC2` (stereo not shown), the “hERG current change (%, negative = inhibition) at 10uM” value came out at 8.54%.

Turning to `CN1C(=O)C(C)(C)c2cc(S(=O)(=O)NCc3ccc(Cl)cc3)ccc21`, the “hERG current change (%, negative = inhibition) at 10uM” value is given as -25.9%.

For `CCOc1ccccc1OCCOCCN1CC(C)OC(C)C1` (stereo not shown), the “hERG current change (%, negative = inhibition) at 10uM” value is given as -4.4%.

Take `Cc1ccc(NC(=O)c2c(-c3ccccc3Cl)noc2C)nc1`: the “hERG current change (%, negative = inhibition) at 10uM” value amounted to 1.56%.

Regarding `CC(C)c1ccccc1N=C1SCCN1C1CCS(=O)(=O)C1` (stereo not shown), the “hERG current change (%, negative = inhibition) at 10uM” value is on record as -5.71%.

Turning to `COc1ccc(-c2ccc3c(c2)S(=O)(=O)c2cccc(C(=O)O)c2C3=O)cc1OC`, the “hERG current change (%, negative = inhibition) at 10uM” value came out at 17.7%.

Turning to `Cc1ccc(Cl)cc1NC(=O)CCC(=O)NCc1ccco1`, the “hERG current change (%, negative = inhibition) at 10uM” value stood at 7.15%.

For `Cc1c(C(=O)NCC(c2ccco2)N2CCCC2)oc2ccc(Cl)cc12` (stereo not shown), the “hERG current change (%, negative = inhibition) at 10uM” value is -42.1%.

Consider `Nc1nonc1-c1nc2ccccc2n1CC(=O)O`, for which the “hERG current change (%, negative = inhibition) at 10uM” value is -0.277%.

In the case of `COc1ccc(OC)c(NC(=O)C23CCC(C)(C(=O)O2)C3(C)C)c1` (stereo not shown), the “hERG current change (%, negative = inhibition) at 10uM” value is 13.9%.

In the case of `Nc1nc(N)nc(-c2cccc(Cl)c2Cl)n1`, the “hERG current change (%, negative = inhibition) at 10uM” value stood at 15.7%.

On to `CC(C)=CCCC(C)N(C=O)C(C)CCC=C(C)C` (stereo not shown), for which the “hERG current change (%, negative = inhibition) at 10uM” value is given as -1.01%.

On to `O=C(/C=C/C=C/c1ccccc1)CC1(O)C(=O)N(CCc2ccccc2)c2ccccc21` (stereo not shown), for which the “hERG current change (%, negative = inhibition) at 10uM” value turned out to be 11.9%.

`O=C(Nc1ccc(F)cc1F)c1ccc2c(c1)[nH]c(=O)n2Cc1ccc(F)cc1`: the “hERG current change (%, negative = inhibition) at 10uM” value was -4.11%.

Take `O=C(NC(=S)N1CCCCC1c1cccnc1)c1ccccc1` (stereo not shown): the “hERG current change (%, negative = inhibition) at 10uM” value stood at 4.5%.

Consider `Clc1ccc(-c2cn3cccnc3n2)cc1Cl`, for which the “hERG current change (%, negative = inhibition) at 10uM” value was -1.9%.

Take `N#Cc1ccccc1NC(=O)CSc1n[nH]c(-c2ccco2)n1`: the “hERG current change (%, negative = inhibition) at 10uM” value amounted to 14.8%.

For the compound `COc1cc(OC)nc(Oc2ccccc2C(=O)Oc2ccc(C)cc2)n1`, the “hERG current change (%, negative = inhibition) at 10uM” value is reported as -25.1%.

With `O=C(CSc1ccccn1)N/N=C/c1cc([N+](=O)[O-])ccc1O`, the “hERG current change (%, negative = inhibition) at 10uM” value turned out to be 12.2%.

`COc1cc(C(=O)NC(C)CCc2ccccc2)cc(OC)c1OC` (stereo not shown): the “hERG current change (%, negative = inhibition) at 10uM” value is reported as 6.27%.

`COc1ccc(Cl)cc1NC(=O)Cn1c(=O)oc2ccccc21`: the “hERG current change (%, negative = inhibition) at 10uM” value was determined as 8.24%.

As to `Cc1ccc(S(=O)(=O)NC(=O)c2ccccc2)cc1C(C)C`, the “hERG current change (%, negative = inhibition) at 10uM” value came out at 2.83%.
